Measurements reported in the supplement of paper PMC12217912.
This is one part of the list. The full chains were built here from the parent and the listed change. Inactive controls read about 0.05.

B1: TEV protease; numbered along this chain (parent)
chain: MGESLFKGPRDYNPISSSICHLTNESDGHTTSLYGIGFGPFIITNKHLFRRNNGTLVVQSLHGVFKVKDTTTLQQHLVDGRDMIIIRMPKDFPPFPQKLKFREPQREERICLVTTNFQTKSMSSMVSDTSCTFPSGDGIFWKHWIQTKDGQCGSPLVSTRDGFIVGIHSASNFTNTNNYFTSVPKNFMELLTNQEAQQWVSGWRLNADSVLWGGHKVFMVKPEEPFQPVKEATQL

Variants of: B1
Experiment: raw area under fraction-flipped curve 0-4 h after induction (AUC4h, not background-subtracted), DNA-recorder readout of cleavage of the substrate (dimensionless); higher = more cleavage of the substrate by the protease variant
Settings: temperature: 34 °C; time window: 0-4 h after rhamnose induction
Description: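 In vivo DNA recorder in E. coli TOP10(DE3) ΔrhaA at 34 °C. Each TEVp single-site mutant (parent TEVp 0) is paired with a single-site variant of the 7-mer TEVs (canonical ENLYFQ|S). The substrate sits between flexible linkers in a Bxb1-sfGFP-TEVs-SsrA fusion, so cleavage stabilises Bxb1 and speeds flipping of a recombination array, read by NGS. The value is the raw area under the fraction-flipped curve over 0-4 h after rhamnose induction (AUC4h), with ≥20 reads per time point. It is not background-subtracted; inactive controls average about 0.047.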
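Further: Bxb1 expression induced with 0.2% (w/v) L-rhamnose at OD600 near 0.5, cultures sampled hourly, flipped fraction per protease–substrate barcode pair counted by paired-end Illumina sequencing.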

Variant | area with substrate ENLAFQS | area with substrate ENLCFQS | area with substrate ENLDFQS | area with substrate ENLEFQS | area with substrate ENLFFQS | area with substrate ENLGFQS | area with substrate ENLHFQS | area with substrate ENLIFQS | area with substrate ENLKFQS | area with substrate ENLMFQS | area with substrate ENLNFQS | area with substrate ENLPFQS | area with substrate ENLQFQS | area with substrate ENLRFQS | area with substrate ENLSFQS | area with substrate ENLWFQS | area with substrate ENLLFQS | area with substrate ENLVFQS | area with substrate ENLTFQS
F41S | 0.0531 | 0.0675 | 0.057 | 0.0499 | 0.0672 | 0.0502 | 0.0671 | 0.07 | 0.0715 | 0.0321 | 0.0618 | 0.0552 | 0.0655 | 0.0643 | 0.0691 | 0.0684 | – | – | –
I42E | 0.0366 | – | 0.0475 | 0.0567 | 0.0411 | – | – | – | 0.0531 | – | 0.0678 | 0.0434 | 0.0347 | 0.0449 | 0.0607 | 0.0459 | 0.0254 | – | –
I42M | 0.0733 | 0.0814 | 0.0597 | 0.0686 | 0.0863 | – | 0.0725 | 0.0903 | 0.0719 | – | 0.0692 | – | – | 0.0691 | 0.0655 | 0.0663 | 0.0719 | – | –
I42P | 0.0446 | – | 0.0401 | 0.0331 | 0.0383 | – | 0.0336 | 0.0425 | 0.042 | – | 0.0427 | 0.0434 | 0.0526 | 0.0507 | 0.0485 | 0.0525 | 0.033 | 0.0543 | –
I42T | 0.0425 | – | 0.0533 | 0.0439 | – | – | 0.0348 | 0.0427 | 0.0622 | – | – | – | – | 0.022 | 0.0495 | – | – | – | –
I43M | 0.0562 | 0.0547 | 0.0564 | 0.0614 | 0.0656 | 0.0593 | 0.0625 | 0.0734 | 0.0598 | 0.0752 | 0.0623 | 0.0519 | 0.0606 | 0.0645 | – | – | 0.0775 | – | –
K46D | 0.0528 | 0.0657 | 0.061 | 0.0528 | 0.0807 | 0.0658 | 0.0563 | 0.0462 | 0.0606 | 0.0615 | 0.0621 | 0.0609 | 0.061 | – | 0.035 | 0.0623 | 0.0552 | 0.0575 | 0.0454
F49E | 0.0512 | 0.0519 | 0.0572 | 0.05 | 0.0576 | 0.0529 | 0.0594 | 0.0633 | 0.0673 | – | 0.0537 | – | 0.0544 | 0.0474 | 0.0392 | 0.0506 | 0.0771 | 0.059 | –
F49S | 0.0544 | 0.0533 | 0.0524 | 0.0538 | 0.0592 | – | 0.0329 | – | 0.0552 | 0.0637 | 0.0558 | 0.0619 | 0.0494 | 0.0655 | 0.0556 | – | – | 0.0564 | 0.0497
R50Q | 0.0666 | – | 0.0637 | – | 0.0856 | – | 0.0746 | 0.0541 | 0.0778 | – | 0.0599 | 0.0443 | 0.0692 | – | 0.069 | 0.0753 | 0.079 | 0.076 | –
R50V | 0.0647 | – | 0.0572 | 0.109 | – | 0.0884 | 0.0521 | 0.0909 | 0.0866 | – | 0.0713 | 0.0546 | 0.0692 | – | 0.069 | 0.0654 | – | – | –
N53E | 0.0817 | – | 0.0558 | 0.0671 | 0.0837 | 0.0715 | – | – | – | – | 0.048 | – | – | 0.0748 | 0.0626 | – | – | 0.0895 | –
G54D | 0.0633 | 0.0695 | 0.0565 | 0.0647 | 0.0556 | – | 0.062 | 0.0579 | 0.0669 | 0.0696 | 0.0615 | 0.0838 | 0.0599 | 0.0633 | 0.0663 | – | 0.0592 | 0.0786 | –
V57C | 0.0647 | 0.0673 | 0.0643 | – | 0.0749 | – | 0.0751 | 0.072 | 0.092 | – | 0.0541 | 0.0639 | 0.0765 | 0.0646 | 0.0642 | – | 0.0852 | 0.0746 | –
V57D | 0.0773 | 0.0717 | 0.0706 | – | 0.0955 | – | 0.0924 | – | 0.0747 | – | 0.0575 | – | – | – | – | – | 0.0507 | 0.0865 | –
Q59T | 0.0626 | 0.0733 | – | – | – | – | 0.0645 | – | 0.0808 | – | 0.0686 | 0.0731 | – | – | 0.0762 | – | 0.0795 | – | –
S60A | 0.0642 | 0.0681 | 0.0619 | – | 0.0762 | 0.048 | 0.0534 | – | 0.0744 | 0.0864 | 0.0682 | 0.044 | 0.0435 | 0.0864 | 0.0528 | 0.0572 | – | 0.0777 | –
G63C | 0.067 | 0.0524 | 0.0619 | 0.0471 | 0.0796 | 0.0724 | 0.0719 | – | 0.068 | – | 0.0563 | 0.0677 | 0.0794 | 0.0735 | – | 0.11 | 0.0865 | 0.0636 | –
G63V | 0.0839 | 0.0668 | 0.0599 | 0.072 | 0.0788 | – | 0.0529 | 0.072 | 0.0685 | 0.0568 | 0.0614 | – | 0.0824 | – | 0.0659 | 0.0669 | – | – | 0.0815
F65S | 0.0587 | – | 0.0795 | 0.0776 | 0.0415 | – | 0.0318 | – | – | 0.0668 | – | 0.0694 | – | – | – | – | – | 0.0772 | –
K66T | 0.0619 | 0.0779 | 0.0513 | 0.0709 | 0.0845 | 0.0673 | – | 0.0791 | 0.0821 | – | 0.0727 | – | – | 0.0478 | – | 0.0685 | – | – | 0.0502
V67H | 0.0602 | 0.0811 | 0.0533 | 0.0549 | 0.0218 | – | – | – | 0.0759 | 0.0618 | 0.0599 | 0.0878 | 0.0599 | 0.0612 | 0.0609 | – | 0.0729 | – | –
K68M | 0.0543 | – | 0.0587 | – | 0.0835 | – | 0.0828 | 0.0844 | – | 0.0769 | – | 0.056 | – | 0.0757 | – | 0.0623 | 0.0781 | – | –
D69M | 0.0383 | – | 0.06 | 0.0488 | 0.072 | 0.0582 | 0.0461 | – | 0.0743 | 0.0457 | 0.0664 | – | 0.0443 | 0.0712 | – | – | – | 0.0718 | –
T70V | 0.0453 | 0.0664 | 0.0484 | – | 0.08 | 0.0838 | 0.0609 | 0.0729 | 0.0682 | – | 0.0538 | 0.0635 | 0.0454 | – | 0.0785 | 0.0694 | 0.0507 | 0.0654 | –
T70Y | 0.0616 | 0.056 | 0.0649 | 0.0691 | 0.0692 | – | 0.0794 | 0.0754 | 0.0573 | – | 0.0719 | 0.0585 | 0.0614 | 0.0651 | 0.0691 | 0.072 | 0.0614 | – | –
T71D | 0.0608 | – | – | – | 0.0646 | – | – | 0.0761 | – | – | 0.0745 | 0.0636 | – | – | 0.0767 | – | 0.062 | 0.074 | 0.0758
